Test results published in patent US9145351B2, “Azole derivatives, methods for producing the same, intermediate thereof, agro-horticultural agents” (KUREHA CORPORATION, priority 2009, dated 2015).
Some results were stated once for a whole list of compounds, not compound by compound. Some compounds share one range, which may span the group rather than tell each member.

Key:
[1] = system: rice plant; assay: Rice elongation prevention assay (Experimental Example 6); type: in vivo; details: 36 mg test compound applied to 180 g of rice seeds, 20 days after seeding
[2] = system: Fusarium graminearum; type: in vivo; details: wheat head, 500 mg/L sprayed at 1,000 L/ha, four to 7 days after inoculation
[3] = system: Tyromyces palustris; assay: Plate medium assay, wood denaturing microorganism Oouzuratake (Experimental Example 5); type: cell-based; details: treatment at 50 mg/l, PDA plate medium
Experimental: (§1) In this Experimental Example, the fungicidal effects of the inventive compounds on various phytopathogenic fungi for plants and hazardous microorganism for industrial materials were examined by the methods described below. Each inventive compound was dissolved in 2 ml of dimethyl sulfoxide. 0.6 ml of this solution was added to 60 nil of a PDA medium (potato dextrose agar medium) at about 60 degrees C., which was mixed thoroughly in a 100-ml conical flask, and poured into a dish, where it was solidified, thereby obtaining a plate medium containing the inventive compound at 50 mg/L and 5 mg/L. On the other hand, a subject microorganism previously cultured on a plate medium was cut out using a cork borer whose diameter was 4 mm, and inoculated to the test compound-containing plate medium described above. […] The growth degree of the microorganism on the test compound-containing plate medium thus observed was compared with the growth degree of the microorganism in the untreated group, and % mycelial growth inhibition was calculated by the following equation. R=100(dc-dt)/dc wherein R=% mycelial extension inhibition, dc=flora diameter in untreated plate, dt=flora diameter in treated plate. The results obtained as described above were evaluated as one of the 5 grades according to the following criteria.

[4] = system: Penicillium sp.; assay: Plate medium assay, industrial material deteriorating microorganism, Penicillium (Experimental Example 5); type: cell-based; details: treatment at 50 mg/l, PDA plate medium
Experimental: as §1

[5] = system: Coriolus versicolor; assay: Plate medium assay, wood denaturing microorganism Kawaratake (Experimental Example 5); type: cell-based; details: treatment at 50 mg/l, PDA plate medium
Experimental: as §1

[6] = system: Cladosporium sp.; assay: Plate medium assay, industrial material deteriorating microorganism, Cladosporium (Experimental Example 5); type: cell-based; details: treatment at 50 mg/l, PDA plate medium
Experimental: as §1

[7] = system: Mucor sp.; assay: Plate medium assay, industrial material deteriorating microorganism, Mucor (Experimental Example 5); type: cell-based; details: treatment at 50 mg/l, PDA plate medium
Experimental: as §1

[8] = system: Aspergillus sp.; assay: Plate medium assay, industrial material deteriorating microorganism, Aspergillus (Experimental Example 5); type: cell-based; details: treatment at 50 mg/l, PDA plate medium
Experimental: as §1

[9] = system: Aureobasidium sp.; assay: Plate medium assay, industrial material deteriorating microorganism, Aureobasidium (Experimental Example 5); type: cell-based; details: treatment at 50 mg/l, PDA plate medium
Experimental: as §1

[10] = system: Trichoderma sp.; assay: Plate medium assay, industrial material deteriorating microorganism, Trichoderma (Experimental Example 5); type: cell-based; details: treatment at 50 mg/l, PDA plate medium
Experimental: as §1

[11] = system: Curvularia sp.; assay: Plate medium assay, industrial material deteriorating microorganism, Curvularia (Experimental Example 5); type: cell-based; details: treatment at 50 mg/l, PDA plate medium
Experimental: as §1

[12] = system: Puccinia recondita; assay: Efficacy test against wheat brown rust, 100 mg/L and 10 mg/L (Experimental Example 2); type: in vivo; details: 100 mg/L sprayed at 1,000 L/ha, nine to 14 days after inoculation
Experimental: Onto a wheat plant (variety: NORIN No. 61) grown to the two-leaf phase using a square plastic pot (6 cm×6 cm), a wettable formulation such as Formulation Example 1 which was diluted and suspended in water at a certain concentration (100 mg/L and 10 mg/L) was sprayed at a rate of 1,000 L/ha. The sprayed leaves were air-dried, and inoculated with spore suspension of Puccinia recondita (adjusted at 200 spores/vision, […] was added at 60 ppm) by spraying, and kept at 25 degrees C. and a high humidity for 48 hours. Thereafter, the plant was kept in a greenhouse. Nine to 14 days after inoculation, the wheat brown rust lesion degree was investigated, and the protective value was calculated by the following equation. Protective value (%)=(1-lesion degree in sprayed plot/lesion degree in unsprayed plot)×100

Row | SMILES | growth regulation grade (% plant height suppression) [1] | Protective value [2] | growth inhibition grade [3] | growth inhibition grade [4] | growth inhibition grade [5] | growth inhibition grade [6] | growth inhibition grade [7] | growth inhibition grade [8] | growth inhibition grade [9] | growth inhibition grade [10] | growth inhibition grade [11] | Protective value [12]
1 | C[C@]1(CCl)CC[C@H](Cc2cccc(Cl)c2)[C@]1(O)Cn1cncn1 (relative stereo) [Compound I-374] | 4 (% Plant height suppression of less than 50 to 30% or higher) | ≥ 90% |  |  |  |  |  |  |  |  |  | 
2 | C[C@@]1(CCl)CC[C@@H](Cc2cccc(Cl)c2)[C@]1(O)Cn1cncn1 (relative stereo) [Compound I-174] |  | ≥ 90% | 4 (% Mycerial growth inhibition of less than 80 to 60% or higher) | 4 (% Mycerial growth inhibition of less than 80 to 60% or higher) | 4 (% Mycerial growth inhibition of less than 80 to 60% or higher) | 4 (% Mycerial growth inhibition of less than 80 to 60% or higher) | 4 (% Mycerial growth inhibition of less than 80 to 60% or higher) | 4 (% Mycerial growth inhibition of less than 80 to 60% or higher) | 4 (% Mycerial growth inhibition of less than 80 to 60% or higher) | 4 (% Mycerial growth inhibition of less than 80 to 60% or higher) | 4 (% Mycerial growth inhibition of less than 80 to 60% or higher) | 
3 | C[C@]1(CCl)CC[C@@H](Cc2ccc(-c3ccccc3)cc2)[C@]1(O)Cn1cncn1 (relative stereo) [Compound I-82] | 4 (% Plant height suppression of less than 50 to 30% or higher) | ≥ 90% | 4 (% Mycerial growth inhibition of less than 80 to 60% or higher) | 4 (% Mycerial growth inhibition of less than 80 to 60% or higher) | 4 (% Mycerial growth inhibition of less than 80 to 60% or higher) | 4 (% Mycerial growth inhibition of less than 80 to 60% or higher) | 4 (% Mycerial growth inhibition of less than 80 to 60% or higher) | 4 (% Mycerial growth inhibition of less than 80 to 60% or higher) | 4 (% Mycerial growth inhibition of less than 80 to 60% or higher) | 4 (% Mycerial growth inhibition of less than 80 to 60% or higher) | 4 (% Mycerial growth inhibition of less than 80 to 60% or higher) | ≥ 90%
4 | C[C@]1(CCl)CC[C@@H](Cc2ccc(OC(F)(F)F)cc2)[C@]1(O)Cn1cncn1 (relative stereo) [Compound I-79] |  | ≥ 90% |  |  |  |  |  |  |  |  |  | ≥ 90%
